Experimental data reported in the supplement of paper PMC11417369.
± gives the standard deviation of the averaged measurements. Some of the results follow.

tested on: PfAP2-G AP2 domain (GST-tagged); experiment: gcPBM binding intensity (ln(normalized median fluorescence intensity)); higher = stronger DNA binding
Method in brief: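 An Agilent 4 × 180k array of primer-extended double-stranded 36-bp intergenic genomic probes, with negative controls, was incubated for 1 h with GST-tagged P. falciparum DNA-binding domains expressed in E. coli. Alexa488 anti-GST antibody detected bound protein, scanned at 488 nm. Binding intensity is the highest Masliner-normalised natural-log median intensity across replicate spots of either probe orientation.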

| Sequence | gcPBM binding intensity (ln) |
| --- | --- |
| TAAAAGGAACAAAATTGTACTTAAAAGACAAAGTTA [XGTACX_site7661] | 11 ± 0.63 |
| ACACAAAAATAAAAATGTACAAATTAAAAAAAATGA [XGTACX_site2083] | 10.8 ± 0.42 |
| ATATATATATATATATATATATATATATTTATATAT [GTGCAC_negctrl_site180] | 9.65 ± 0.31 |
| CTTTGTAGTTGGTCCACACACATATATGGAAGAATA [CACACA_site1280] | 11.4 ± 0.91 |
| TAATAATAGAGACACACACACATTTTTAATAATACA [CACACA_site6691] | 10.1 ± 0.092 |
| TATAAAATATATATCTGTACGTATTTTATTTTTTAT [XGTACX_site6257] | 11.4 ± 0.88 |
| TATAAGCAAAGACACACACACATATAAATATAAATA [CACACA_site7740] | 10 ± 0.11 |
| ATGTAGATAGATAGGGTGCTAAAAATAAGATTTATA [GTGCAC_site9602] | 10.1 ± 0.26 |
| AAAAAAAAAAAAAAAACACACACAACACCCATACCT [CACACA_site9208] | 10.5 ± 0.32 |
| AATACAATATAAAGGTGTACATATATATATATATAT [XGTACX_site68] | 11.4 ± 0.9 |
| TATATAATTATTTGATGTACACTACAATGTATTTGT [XGTACX_site7991] | 11.4 ± 0.85 |
| TTATGTTCTTAATGCACACTTATAAGTATCTTATAA [CACACA_site1394] | 10.7 ± 0.37 |
| TACAAAATATTTTACACACACATATAAATACCTATA [CACACA_site7272] | 10.2 ± 0.11 |
| TATATATATATATGAGTGCATATGTGTAATATAAAA | 10.3 ± 0.21 |
| ATTATTGTAATATTAGCACACATTACCTCACTACAA [CACACA_site2560] | 10.2 ± 0.21 |
| ATTGTAAGGAAACACACACACATATATATGTATATA [CACACA_site676] | 10.06 ± 0.057 |
| TATATGTTTAATTTCACACACAAATATGCATTTTAA [CACACA_site7881] | 9.98 ± 0.014 |
| AAATAAATACTAGGCACACACACATATATATATATA [CACACA_site2079] | 10.2 ± 0.2 |
| CGCACCCAAATATATACACACATATATATATATATA [CACACA_site1651] | 10.1 ± 0.23 |

| Sequence | gcPBM binding intensity (ln) |
| --- | --- |
| ATATATATATATATATGTACGTATAATATATATATG [XGTACX_site2212] | 11.5 ± 0.85 |
| ATTATTCAGGTAAAGTGTACAGGAGAAAAATAAAAT [XGTACX_site334] | 11.4 ± 0.72 |
| AATAGGGTCATTCAAAAAAAAAAAAAATAATAATAC [CACACA_negctrl_site644] | 10.1 ± 0.29 |
| GGAAAATGAAAACAAGGTACACATAAGAACAAACAA [XGTACX_site1221] | 11.4 ± 0.87 |
| AAATCACATAAAAATAGTACTTTTTTTTTTTTTTTT [XGTACX_site2696] | 11.2 ± 0.7 |
| TGTTTTTATCCTTATGGTACAGTATAATACTTACAG [XGTACX_site6381] | 10.9 ± 0.57 |
| AAATTTGCTTTACCAGTGCAAAAAAAAAAAAAAAAA | 9.96 ± 0.53 |
| TATTTTGTTCTTTCCACACACAAATACATATATTGT [CACACA_site4071] | 10.3 ± 0.24 |
| TAATACATACACACATGTACATACAGAAATAAATAA [XGTACX_site3245] | 11.2 ± 0.81 |
| AATTATTAAATATGTACACACGTACATTTTATAAAT [CACACA_site5341] | 11.6 ± 1 |
| AGTACATTATAGAATACACACCTATATATATATATA [CACACA_site4447] | 10.3 ± 0.25 |
| TAAAATTAATAAAATATTTTCACTTAATATATATAA [CACACA_negctrl_site1550] | 9.55 ± 0.22 |
| ATGTTGTACAAACACACACACAAAAAAAAAATAAAA [CACACA_site2406] | 11.2 ± 1.2 |
| ATATATATATGTGGATGTACATATATCTCTTATTAT [XGTACX_site1748] | 11 ± 0.49 |
| AATATAAAAATGTTTACACACACACGGAAATATATT [CACACA_site7226] | 10.21 ± 0.092 |
| CATATATATATTTTTTGTACATATATTTTTACATAT [XGTACX_site8419] | 11 ± 0.45 |
| TTTTACATAAATTATAAATATATAAAATAAAAAAAA [CACACA_negctrl_site1499] | 9.72 ± 0.028 |
| TTAATATTCCAGCTTTGTACATATATATATTATAAA [XGTACX_site7954] | 10.7 ± 0.47 |
| TTAATGGAAAAATAGGCACACACACCGATATACATA [CACACA_site8356] | 10.24 ± 0.064 |

| Sequence | gcPBM binding intensity (ln) |
| --- | --- |
| TGGCTTTCCCTGCCGGTGCATTAACATTTTTTACAT [GTGCAC_site9914] | 9.9 ± 0.16 |
| AAAAAGAAGAAGAAATGTACGTAACTATATATTTAT [XGTACX_site4362] | 11.2 ± 0.66 |
| TTTATTTTTGAAGTTGCACACACAAAAATAAAAAGT [CACACA_site8030] | 10.4 ± 0.47 |
| CCTAAAGTGTAAAATTCACACACATATATATATATA [CACACA_site8385] | 10 ± 0.23 |
| TTTATTTATAGGTATACACACTTTAATTAAAAGTTG [CACACA_site7232] | 10.8 ± 0.33 |
| ATATGGGTGAACATATGTACATATATATATTGATAA [XGTACX_site8438] | 11.1 ± 0.52 |
| TTGGTATATTATAAAAGTACACATAATAAAAAATTT [XGTACX_site7985] | 11.5 ± 0.93 |
| AATTCAATTGAGCAAAATTCAAATAAATTAAAAAGA [XGTACX_negctrl_site71] | 9.725 ± 0.035 |
| CAAAAATAATTTAGGTGTACAAATTTGACAAAAAAA [XGTACX_site188] | 11.7 ± 0.59 |
| ATGAAACACTCCATAGTGCAAAATATATATTATATT | 9.95 ± 0.014 |
| CTATTTTTCCTGAAATGTACAAGAATTTTATTTGAT [XGTACX_site8867] | 10.8 ± 0.56 |
| TGATAATATTATATATGTACATATATGTATATTTTT [XGTACX_site7193] | 11.1 ± 0.55 |
| ATTTTTCATTCTGGACATGTTACCATTATATATATG [CACACA_negctrl_site61] | 10.7 ± 0.26 |
| ATAACTATAATAATCATACACACCAAAGAGAATATT [CACACA_site6970] | 9.995 ± 0.049 |
| ATTATTACTTTTTGAGTGCACATACACACAGACATA | 10.7 ± 0.47 |
| TTACATAATTTATGTACACACGCAAATACTTATAAT [CACACA_site4331] | 11.5 ± 0.81 |
| ATTAAAAAAATATACGCACACAAAATGTAATAACAA [CACACA_site2439] | 10.4 ± 0.21 |
| TAATTTGTTATGTATTGTACAAATAATATATGATAT [XGTACX_site1985] | 10.9 ± 0.63 |
| TTTTGTTTAAAAAAAAAAAACAAAAAAAAGCAATTA [CACACA_negctrl_site314] | 9.82 ± 0.13 |
